Data reported in publication PMC4336329 (PLoS ONE, 2015).
Hit rate of the full screen: of about 310,000 compounds, about 2,200 (0.71%) showed an effect of 50% or more. Effects have a minus sign here. Some of the results follow.

Target: human ether-à-go-go-related gene (hERG) potassium channel (human, UniProt Q12809)
Experiment: primary screen, population patch clamp on CHO cells stably expressing hERG

human ether-à-go-go-related gene (hERG) potassium channel, sequence (Q12809 whole entry, looked up): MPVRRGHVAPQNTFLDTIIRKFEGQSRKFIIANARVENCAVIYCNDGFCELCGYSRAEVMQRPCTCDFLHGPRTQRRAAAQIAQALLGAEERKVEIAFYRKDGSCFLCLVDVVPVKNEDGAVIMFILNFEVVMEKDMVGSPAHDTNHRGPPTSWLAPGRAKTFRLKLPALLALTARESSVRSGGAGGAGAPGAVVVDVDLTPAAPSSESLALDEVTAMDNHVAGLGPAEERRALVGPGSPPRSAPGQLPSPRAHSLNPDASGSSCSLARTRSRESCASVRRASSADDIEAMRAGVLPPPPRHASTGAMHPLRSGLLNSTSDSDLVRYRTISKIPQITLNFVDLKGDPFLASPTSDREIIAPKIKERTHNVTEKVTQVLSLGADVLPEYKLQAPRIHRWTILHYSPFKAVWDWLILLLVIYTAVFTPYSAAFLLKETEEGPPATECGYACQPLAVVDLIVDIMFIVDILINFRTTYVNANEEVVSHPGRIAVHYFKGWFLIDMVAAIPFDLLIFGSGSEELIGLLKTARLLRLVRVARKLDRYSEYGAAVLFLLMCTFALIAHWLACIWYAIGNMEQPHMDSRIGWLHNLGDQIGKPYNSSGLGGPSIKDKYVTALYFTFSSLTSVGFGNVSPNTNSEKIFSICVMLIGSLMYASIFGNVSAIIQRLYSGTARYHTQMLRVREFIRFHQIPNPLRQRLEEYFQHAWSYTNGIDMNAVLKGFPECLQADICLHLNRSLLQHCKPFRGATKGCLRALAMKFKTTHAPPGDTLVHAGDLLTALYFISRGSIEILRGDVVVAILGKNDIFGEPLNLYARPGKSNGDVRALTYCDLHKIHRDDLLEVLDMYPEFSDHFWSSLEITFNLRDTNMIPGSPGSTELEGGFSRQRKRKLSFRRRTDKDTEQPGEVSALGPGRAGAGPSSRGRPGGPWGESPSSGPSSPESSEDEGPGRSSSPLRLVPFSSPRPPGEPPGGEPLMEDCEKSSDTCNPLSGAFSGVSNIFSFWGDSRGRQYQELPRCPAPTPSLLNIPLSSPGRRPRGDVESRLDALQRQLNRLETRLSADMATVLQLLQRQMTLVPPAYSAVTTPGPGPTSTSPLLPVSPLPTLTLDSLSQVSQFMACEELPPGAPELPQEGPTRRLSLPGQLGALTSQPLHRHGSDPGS

| Structure (SMILES) | hERG current change (%, negative = inhibition) at 1uM |
| --- | --- |
| CN1CCC(N(C)C(=O)Cc2ccccc2[N+](=O)[O-])CC1 | 13.3% |
| COC(=O)c1sc(NC(=O)CSc2nc3cccnc3n2C)nc1C | 3.03% |
| COC(=O)c1cc(NC(=O)c2cc(C(C)(C)C)nn2Cc2ccc(F)cc2)ccc1N1CCOCC1 | 6.17% |
| Cc1[nH]nc(-c2ccc(OCc3cnn(-c4ccccc4)c3)cc2O)c1Oc1ccc(F)cc1 | 19.4% |
| O=C(/C=C/c1ccc(Cl)c(C(F)(F)F)c1)N1CCN(c2ccccn2)CC1 | 2.66% |
| Clc1ccc(OCc2nnc(-c3ccccc3Br)o2)cc1 | 3.75% |
| Cc1cc(NC(=O)C(C)SCC(=O)Nc2ccccc2N2CCCC2)no1 (centres unmarked) | 20.9% |
| Cc1nc(COC(=O)c2c(C)nn(-c3ccccc3)c2C)cs1 | 8.52% |
| COc1ccc(CCNC(=O)c2cc3c(=O)n(C)c4ccccc4c3n2C)cc1OC | 2.13% |
| Cc1nc2ccc(N3C(=O)CCC3=O)cc2[nH]1 | 5.6% |
| O=C(CN1CCC2(CC1)OCCO2)c1c[nH]c2ccccc12 | 13.5% |
| CCc1ccc(NC(=O)/C(C#N)=C\c2ccc(OC)c(C(=O)O)c2)cc1 | 15.1% |
| Cc1cc(C(=O)Nc2ccc(S(=O)(=O)Nc3onc(C)c3C)cc2)cs1 | 11.1% |
| Cn1c(SCC(=O)c2ccc(F)cc2)nc2cccnc21 | 2.78% |
| CCc1ccc2nc(Nc3nc(COC)cc(=O)[nH]3)nc(C)c2c1 | -64.8% |
| COn1c(=O)c(-c2cccs2)[n+]([O-])c2ccccc21 | 3.29% |
| Cc1ccc(NCCc2ccc(C)nc2)cc1 | 10.5% |
| COc1cccc(CNC(=O)Cn2c(=O)oc3ccccc32)c1OC | 8.56% |
| Cn1c(=O)c2c(SCc3cccc(C(F)(F)F)c3)nc(-c3ccco3)nc2n(C)c1=O | 2.39% |
| CCOC(=O)c1c(NC(=O)CSc2nc3cc(Cl)ccc3c(=O)n2Cc2ccco2)sc(C(=O)N(C)C)c1C | 6.3% |
| O=C(Nc1cccc(O)c1)c1cc(-c2ccco2)on1 | 12.6% |
| CN1CCCN(C(=O)/C=C/c2ccc(Cl)cc2Cl)CC1.Cl | -25.7% |

| Structure (SMILES) | hERG current change (%, negative = inhibition) at 1uM |
| --- | --- |
| O=C(NCCCN1CCOCC1)c1cc(-c2ccc(O)cc2)on1 | 1.06% |
| Cn1nc(-c2ccc(C(=O)NC3CCCCC3)cc2)c2ccccc2c1=O | -2.57% |
| COc1ccccc1C(=O)NCC(=O)N1CC=C(c2ccccc2)CC1 | 11.7% |
| Cc1cccc(NC(=S)N(CCN(C)C)C(C)c2ccco2)c1 (centres unmarked) | 7.21% |
| O=C(COc1ccc(S(=O)(=O)N2CCCCC2)cc1Cl)N1CCCC1 | 4.16% |
| COc1cc(/C=C/C(=O)OC(C)C(=O)Nc2c(C)n(C)n(-c3ccccc3)c2=O)ccc1OCC#N (centres unmarked) | 9.33% |
| CC1CCc2sc(C(=O)OCC(=O)NC(C)C)cc2C1 (centres unmarked) | -1.28% |
| CC(C)Sc1nnc(-c2c[nH]c3ccccc23)n1C | 10.5% |
| CCCNC(=O)OC[C@H]1O[C@H](CCO/N=C(\C)CCN2CCc3nc(-c4ccccc4)c(-c4ccccc4)cc3C2)C=C[C@@H]1Oc1ccc(OC)cc1 | 8.32% |
| Cc1cc(C)n(/N=C/c2ccccc2O)c(=O)c1 | 3.08% |
| Cl.O=C(O)c1cccc(Nc2ncnc3c2cnn3-c2ccccc2)c1 | 12.7% |
| COc1ccc(NC(=O)CSc2nnc(C)c(=O)n2N)cc1 | 13.3% |
| O=C1NC2(CCN(Cc3ccccc3)CC2)Oc2ccccc21 | 8.51% |
| Cc1nccc(-c2cccc(NC(=O)c3ccccc3Cl)c2)n1 | 7.23% |
| COc1ccccc1CNC(=O)C(NS(=O)(=O)c1ccc2c(c1)OCCO2)C(C)C (centres unmarked) | 6.69% |
| Cc1ccc(-n2nc(C)c3c(-c4cccs4)c(C#N)c(N)nc32)cc1 | 12.7% |
| Cn1c(-c2ccsc2)c(-c2cccs2)c2cc(-c3ccc4[nH]ccc4c3)ccc21 | 8.24% |
| CC(C)OC(=O)C1=C2SCC(=O)N2C(N)=C(C#N)C1 | 10.4% |
| COc1ccccc1NC(=O)C(=O)NCCC1CCCCN1S(=O)(=O)c1ccccc1 (centres unmarked) | 16.6% |
| COc1ccc(NC(=O)COC(=O)c2cc(SC)ccc2Cl)c(OC)c1 | 6.64% |
| CCOC(=O)C1CCCN(Cc2nc(Cc3ccccc3Cl)no2)C1 (centres unmarked) | -2.77% |
| Cc1c(-n2c(O)c(C3=c4ccccc4=NC3=O)sc2=S)c(=O)n(-c2ccccc2)n1C | 13.7% |

| Structure (SMILES) | hERG current change (%, negative = inhibition) at 1uM |
| --- | --- |
| CCOc1ccc(S(=O)(=O)N2CCC(C(=O)NC3CC3)CC2)cc1C | 11.7% |
| Cn1c(=O)[nH]c(=O)c2c1nc(Sc1nc3ccccc3s1)n2Cc1ccccc1 | 6.69% |
| COc1ccccc1NC(=O)N1CCN(Cc2ccc3c(c2)OCO3)CC1.O=C(O)C(=O)O | 12.1% |
| C[C@]1(C(=O)NCc2cc(F)cc(C(F)(F)F)c2)C=C[C@@H](Cc2ccccc2)N1C(=O)c1ccccc1 | 14.5% |
| Cc1cccc2c(=O)cc(C)n(Cc3ccccc3)c12 | 11% |
| COc1cc(OC)cc(C2=NC3(CCC(C)CC3)NC2=S)c1 (centres unmarked) | 2.73% |
| O=C(C1=C[C@@H](C2CCCCC2)C[C@@H](OCc2ccc(CO)cc2)O1)N1CCN(Cc2ccc3c(c2)OCO3)CC1 | 12.2% |
| CCSC1=NC(=O)/C(=C2/C=Cc3ccccc3N2CC)S1 | 8.6% |
| COc1cc(OC)cc(-c2c(-c3cccs3)c3cc(-c4ccc5c(c4)OCCO5)ccc3n2C)c1 | 20.7% |
| COC(=O)COc1ccccc1/C=C1/NC(=O)NC1=O | 8.13% |
| O=C(CN(c1ccc2c(c1)OCCO2)S(=O)(=O)c1ccccc1)Nc1ccc2c(c1)OCO2 | 2.01% |
| Cc1cccc(OCC(=O)Nc2ccc3oc(=O)ccc3c2)c1C | 11.6% |
| CC(=O)c1cnc(Oc2cc(Cl)ccc2Cl)nc1C | 9.91% |
| CCOC(=O)C(CCCCCCC(NC(C)=O)(C(=O)OCC)C(=O)OCC)(NC(C)=O)C(=O)OCC | 7.87% |
| COC(=O)CSc1nc2ccccn2c(=O)c1C=O | 12.3% |
| COc1ccc(OC)c(Nc2nc(N)nc(-c3cc4ccccc4o3)n2)c1 | -1.1% |
| Cc1ccc(O)c(Nc2c3ccccc3nc3ccccc23)c1 | -7.15% |
| O=C1CCC/C(=N\NC(=O)c2ccc(COc3cccc4cccnc34)cc2)C1 | 10.9% |
| O=C(Nc1ccc(Cn2ccnc2)cc1)c1cccc(C(F)(F)F)c1 | 7.9% |
| CNS(=O)(=O)c1ccc2c3c(cccc13)C(=O)N2C | 7.83% |
| CN1CCC(NCCC(c2ccc(F)cc2)c2ccc(Cl)cc2)CC1 (centres unmarked) | 2.44% |
| NS(=O)(=O)c1cccn1-c1ncc(C(F)(F)F)cc1Cl | 5.67% |

| Structure (SMILES) | hERG current change (%, negative = inhibition) at 1uM |
| --- | --- |
| Cc1cccc(OCc2nnc(SCc3nc4ccccc4c(=O)[nH]3)o2)c1 | 11.1% |
| CCn1cc(CN2CCC(C(=O)Nc3cccc(-c4cccc(Cl)c4)c3)CC2)c(C)n1 | -39.2% |
| COc1ccc(OC)c(-n2nnnc2SCC(=O)N2CCN(C(=O)c3ccco3)CC2)c1 | 3.31% |
| CCOc1ccc(NC(=O)CNC(=O)COc2ccccc2)cc1 | 7.09% |
| Cc1cc(C)c(C(=O)/C=C/c2cccc3ccccc23)c(=O)[nH]1 | -13.9% |
| O=c1cc(N2CCCCCC2)[nH]c(=O)n1-c1ccc(Cl)cc1 | 12.6% |
| CC(OC(=O)c1ccc2c(=O)n3c(nc2c1)CCCCC3)C(=O)Nc1ccc(Cl)cn1 (centres unmarked) | 2.05% |
| Cn1c(SCC(=O)c2ccc(F)cc2)ncc(C(=O)Nc2ccccc2)c1=O | 11.5% |
| CCCn1c(SCC(=O)Nc2cccc(C)n2)nc2c1c(=O)n(C)c(=O)n2C | -2.62% |
| NC1=NC(=O)/C(=C/c2cccc(-c3ccc(S(N)(=O)=O)cc3)c2)S1 | 7.47% |
| C#CCSc1nc(C)cc(C(=O)OCC)c1C#N | 9.89% |
| COc1cccc(CN(C)C(=O)c2ccc(NS(=O)(=O)c3ccc4[nH]c(=O)[nH]c4c3)cc2)c1OC | -1.53% |
| OC(Cn1cncn1)(c1ccccc1)c1ccccc1 | 7.57% |
| Cc1ccc(CS(=O)Cc2ccc(C(=O)N3CCOCC3)o2)cc1 (centres unmarked) | 4.17% |
| CCCn1cc(S(=O)(=O)c2ccc(OC)cc2)c(=O)c2cc(OCC)ccc21 | 12% |
| CCOC(=O)c1c(/N=C/C2C(=O)NC(=O)NC2=O)sc2c1CCC2 | 6.41% |
| CCN(CC)S(=O)(=O)c1cc(C(=O)Oc2cccc(-c3cnc4ccccc4n3)c2)ccc1OC | 10.5% |
| CCC(CC)C(=O)Nc1ccncc1 | 15.9% |
| N#Cc1c(-c2ccc(Cl)cc2)nc2n(c1=O)CCCS2 | 7.72% |
| CCCCS(=O)CC(CS(=O)CCCC)OC(=O)c1ccccc1 (centres unmarked) | -1.49% |
